The values that follow come from article PMC4336329 (PLoS ONE, 2015).

Out of some 310,000 compounds screened, about 2,200 (0.71%) showed an effect of 50% or more. Effects have a minus sign here. The list shows a part of the results.

The target in this assay is human ether-à-go-go-related gene (hERG) potassium channel (human, UniProt Q12809). In words: primary screen, population patch clamp on CHO cells stably expressing hERG.
Chain of human ether-à-go-go-related gene (hERG) potassium channel (Q12809 whole entry, looked up): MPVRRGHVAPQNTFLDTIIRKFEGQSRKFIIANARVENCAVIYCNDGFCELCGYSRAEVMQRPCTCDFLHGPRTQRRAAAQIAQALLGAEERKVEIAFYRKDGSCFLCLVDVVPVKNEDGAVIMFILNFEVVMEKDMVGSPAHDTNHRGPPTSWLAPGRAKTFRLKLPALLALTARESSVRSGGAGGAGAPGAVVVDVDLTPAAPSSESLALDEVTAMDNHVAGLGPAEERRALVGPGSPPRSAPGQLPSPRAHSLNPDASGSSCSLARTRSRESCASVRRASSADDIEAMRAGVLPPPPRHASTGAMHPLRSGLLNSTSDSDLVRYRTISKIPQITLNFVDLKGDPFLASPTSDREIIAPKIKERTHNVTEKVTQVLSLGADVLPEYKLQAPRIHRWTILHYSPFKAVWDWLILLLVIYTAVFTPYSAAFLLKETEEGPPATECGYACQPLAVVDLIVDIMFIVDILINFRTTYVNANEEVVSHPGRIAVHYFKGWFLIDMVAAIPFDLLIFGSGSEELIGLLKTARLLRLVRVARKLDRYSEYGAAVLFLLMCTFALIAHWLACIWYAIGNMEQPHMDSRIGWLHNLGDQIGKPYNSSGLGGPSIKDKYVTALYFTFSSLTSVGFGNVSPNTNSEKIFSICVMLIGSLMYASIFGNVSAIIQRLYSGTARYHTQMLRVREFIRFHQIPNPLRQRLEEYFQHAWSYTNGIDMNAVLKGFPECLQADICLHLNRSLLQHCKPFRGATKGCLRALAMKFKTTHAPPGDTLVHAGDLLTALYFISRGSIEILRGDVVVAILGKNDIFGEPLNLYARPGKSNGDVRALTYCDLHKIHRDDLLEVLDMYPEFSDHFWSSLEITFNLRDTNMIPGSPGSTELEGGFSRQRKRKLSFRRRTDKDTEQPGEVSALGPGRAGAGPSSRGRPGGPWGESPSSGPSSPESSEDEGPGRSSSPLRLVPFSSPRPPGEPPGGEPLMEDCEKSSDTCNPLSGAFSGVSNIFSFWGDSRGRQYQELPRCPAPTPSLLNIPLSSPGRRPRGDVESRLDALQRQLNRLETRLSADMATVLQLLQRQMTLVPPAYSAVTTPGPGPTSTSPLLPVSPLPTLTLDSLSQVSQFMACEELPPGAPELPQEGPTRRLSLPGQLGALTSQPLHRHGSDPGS
On to `CC(C)CCNC(=O)C1CCCN(S(=O)(=O)c2ccc(-n3cnnn3)cc2)C1` (stereo not shown), for which the “hERG current change (%, negative = inhibition) at 1uM” value came to 23%. The figure for `Cc1ccc(C2=NC(C)(C)N3C2C3c2ccc([N+](=O)[O-])cc2)cc1` (stereo not shown) is 8.22%; for `COc1c(O)c(=O)n2c3ccccc3c3ccnc1c32` it is 11.2%; for `CCOc1cc(/C=N/n2c(C)nc3sc(C)c(C)c3c2=O)ccc1O` it is 1.74%. The figure for `O=C(O)c1ccccc1/C=N/NC(=O)C1CCCCC1` is -4.05%; for `Cc1c(CCC(=O)NC2CC2)c(=O)oc2c(C)c(O)ccc12` it is 22.9%. The figure for `COc1ccccc1N1CCN(C(=O)C2CC=CCC2C(=O)O)CC1` (stereo not shown) is 4.6%. Turning to `Cc1cc(C)c(NC(=O)CS(=O)CC(=O)N2CCN(c3ccccc3)CC2)c(C)c1` (stereo not shown), the “hERG current change (%, negative = inhibition) at 1uM” value was 5.61%. The figure for `CCOc1ccc(-c2c(C(=O)N/N=C/c3ccc(O)cc3)nnn2-c2nonc2N)cc1` is 16.6%; for `Cc1cccc(OCC(=O)N(Cc2ccco2)c2c(N)n(Cc3ccccc3)c(=O)[nH]c2=O)c1` it is 6.56%. In the case of `Cc1[nH]c2ccccc2c1C(c1ccccn1)N1CCCC1` (stereo not shown) it was 6.13%. For `O=C(O)c1cccnc1C(=O)N1CCc2c([nH]c3ccccc23)C1C(F)(F)F` (stereo not shown), the “hERG current change (%, negative = inhibition) at 1uM” value worked out at 7.35%.

With `CCSC1=NCCN1S(=O)(=O)c1ccc2ccccc2c1`, the “hERG current change (%, negative = inhibition) at 1uM” value is on record as -0.891%. The figure for `Nc1nc(N2CCN(c3cccc(Cl)c3)CC2)n[nH]1` is 4.81%.

In the case of `NC(=O)c1cc(S(=O)(=O)NCCc2ccc(S(N)(=O)=O)cc2)cs1`, the “hERG current change (%, negative = inhibition) at 1uM” value is reported as 13.3%. In the case of `CCOC(=O)Cn1c(=N)n(CCOc2cccc(C)c2)c2ccccc21.Cl` it was -18.2%; in that of `CCc1nonc1NC(=O)c1oc2cc(C)c(Cl)cc2c1C`, 12.6%; in that of `CCOC(=O)C1CCN(C(=O)c2cc3cc(C)ccc3[nH]2)CC1`, 11.8%. The figure for `CN1CCN(C(=O)c2cc(C(C)(C)C)cc(C(C)(C)C)c2)CC1` is 14.3%. The figure for `COc1ccc(NC(=O)CCS(=O)(=O)c2ccccc2)c(OC)c1` is -4.42%; for `O=C(O)c1c2c(nc3ccc(Cl)cc13)CCC2` it is 10.1%; for `Clc1ccc(-c2nnnn2-c2ccc(Cl)cc2)cc1` it is 15.1%. For the compound `CN[C@H](CC(=O)O)C(=O)O`, the “hERG current change (%, negative = inhibition) at 1uM” value was -6.08%. In the case of `COc1ccc(C)cc1NC(=O)Nc1ccc(C(=O)N2CCCC2)cc1` it was -2.21%. The figure for `COc1ccc(OCc2nnc(SC3CCOC3=O)n2-c2ccccc2)cc1` (stereo not shown) is 8.59%.
